# The other results are listed elsewhere or left out. Cut-off read from the data, not from the text of the source: active = 3.2 or more and inactive = the rest. Only a few entries rise above the background.
# Legend:
# Assay in all cases: enrichment score (SH2-bound / input frequency) (ratio); bacterial display of known human phosphotyrosine sites (pTyr-Var adds point mutants) read by sequencing; higher = stronger binding; tyrosines were phosphorylated by kinases first
# Settings in all cases: peptide library: pTyr-Var
# SHP2 C-SH2 domain E139D = target: SHP2 C-SH2 domain E139D
# [1] = target: SHP2 C-SH2 domain wild-type
# SHP2 N-SH2 domain L43F = target: SHP2 N-SH2 domain L43F
# SHP2 N-SH2 domain T42A = target: SHP2 N-SH2 domain T42A
# SHP2 N-SH2 domain T52S = target: SHP2 N-SH2 domain T52S
# [2] = target: SHP2 N-SH2 domain wild-type
# 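Note: displayed peptides selected on beads carrying the immobilized SH2 domain, with library peptides lacking any tyrosine serving as negative controls.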
Binder,enrichment score (SHP2 C-SH2 domain E139D),enrichment score [1],enrichment score (SHP2 N-SH2 domain L43F),enrichment score (SHP2 N-SH2 domain T42A),enrichment score (SHP2 N-SH2 domain T52S),enrichment score [2]
LLKMMYLMLDN [STAT1_Y203_K201M],active: 5.13,active: 4.64,active: 4.8,active: 3.77,active: 3.68,active: 4.31
PLKYLYPNIDR [STAT1_Y668_K673R],inactive: 1.14,inactive: 1.61,active: 3.38,active: 3.83,active: 3.94,inactive: 2.15
PKGTGYIKTES [STAT1_Y701_L706S],inactive: 0.683,inactive: 0.819,inactive: 0.517,inactive: 0.649,inactive: 0.786,inactive: 0.916
CQAHGYSCQLI [STK11_Y156_F157S],inactive: 1.3,inactive: 1.06,inactive: 1.21,inactive: 0.88,inactive: 0.962,inactive: 0.843
CQAHGYFCQPI [STK11_Y156_L160P],inactive: 1.5,inactive: 1.34,inactive: 1.47,inactive: 1.1,inactive: 1.43,inactive: 1.48
STEVIYLPRRK [STK11_Y36_Q37L],inactive: 0.215,inactive: 0.297,inactive: 0.275,inactive: 0.177,inactive: 0.227,inactive: 0.208
EDDIIYTQDFM [STK11_Y362_T367M],inactive: 0.456,inactive: 0.602,inactive: 0.51,inactive: 0.489,inactive: 0.461,inactive: 0.627
LWEGSYGKVKE [STK11_Y60_G56W],inactive: 0.613,inactive: 0.56,inactive: 0.696,inactive: 0.689,inactive: 0.824,inactive: 0.892
LRFEVYGGENE [STOX1_Y610_YF],inactive: 1.25,inactive: 1.48,inactive: 1.25,inactive: 1.26,inactive: 1.25,inactive: 1.41
HIILLYIFLKN [STXBP1_Y411_R406H],inactive: 1.33,inactive: 0.858,inactive: 1.52,inactive: 0.813,inactive: 1.16,inactive: 0.858
PVRIAYGRPRG [SUGP2_Y985_D986G],inactive: 0.34,inactive: 0.283,inactive: 0.186,inactive: 0.164,inactive: 0.325,inactive: 0.284
SYCYRYCCAAR [SUMF1_Y344_R345C],inactive: 0.764,inactive: 0.417,inactive: 0.402,inactive: 0.566,inactive: 0.486,inactive: 0.419
SFCFRYRCAAQ [SUMF1_Y344_R349Q_YF],active: 3.73,inactive: 2.98,active: 3.3,inactive: 2.79,active: 3.24,inactive: 2.65
SYCYRYRCAAW [SUMF1_Y344_R349W],active: 4.2,active: 3.38,active: 3.97,active: 3.35,active: 3.76,active: 3.37
FSAGTYPRLEE [SYCN_Y108],inactive: 0.842,inactive: 0.762,inactive: 0.68,inactive: 0.735,inactive: 0.775,inactive: 0.894
SDVCMYRKNIY [SYNE2_Y570],inactive: 0.774,inactive: 0.673,inactive: 0.674,inactive: 0.475,inactive: 0.613,inactive: 1.01
SDVCMYRKNTY [SYNE2_Y570_I574T],inactive: 0.505,inactive: 0.722,inactive: 0.612,inactive: 0.462,inactive: 0.469,inactive: 0.515
SDVCMYRKNIF [SYNE2_Y570_YF],inactive: 0.884,inactive: 1.04,inactive: 0.838,inactive: 0.486,inactive: 0.615,inactive: 1.18
YRKNIYNVKST [SYNE2_Y575],inactive: 0.637,inactive: 0.347,inactive: 0.57,inactive: 0.572,inactive: 0.731,inactive: 0.489
